Each structure is given as a SMILES string. In all, about 150,000 compounds went through this assay and about 540 (0.36%) showed an effect of 50% or more. The list shows a part of the results.

The source of these data is ChEMBL document CHEMBL4888484, “Replenishing the malaria drug discovery pipeline: Screening and hit evaluation of the MMV Hit Generation Library 1 (HGL1) against asexual blood stage Plasmodium falciparum ,using a nano luciferase reporter read-out” (2022).

The subject of this experiment is Plasmodium falciparum. Description: Primary screen in NF54 nanoGlo assay, in single point, at 2uM, 72h; a lower Z score goes with more inhibition. It counts as functional, Erythrocyte. The conditions noted are these: timepoint 72 hour.
As usually defined, the % Inhibition is the drop in the measured response relative to a control, in per cent. `CN(c1ccnc(C(=O)N2CCN(Cc3ccccc3)CC2)c1)S(=O)(=O)c1ccccc1`: the “% Inhibition” value was -12% and the Z score was 1.97.

Regarding `Cn1c(C(=O)N2CCOCC2)c(-c2ccc(Cl)cc2)c2cc(Cl)ccc21`, the “% Inhibition” value is recorded as -24% and the Z score came out at 2.15.

`O=C(NC1CCCCC1)N1CC[C@H](n2ccnn2)C1`: the “% Inhibition” value was -10% and the Z score was found to be 1.77.

Take `CC(C(=O)O)c1cccc(NC(=O)C2CCc3cc(F)ccc32)c1` (centres undefined): the “% Inhibition” value was determined as 12% and the Z score is recorded as -1.46.

With `Cc1nc(C(C)C)sc1CNC(=O)CCn1ccc(=O)[nH]c1=O`, the “% Inhibition” value is recorded as -14% and the Z score was found to be 1.92.

As to `COc1ccc(N(Cc2cccs2)S(=O)(=O)c2ccccc2Cl)cc1`, the “% Inhibition” value is on record as -17% and the Z score amounted to 2.12.

As to `CCCCn1nc(C)cc1NC(=O)NCC(F)(F)F`, the “% Inhibition” value is -11% and the Z score amounted to 2.09.

On to `Cc1nc(C)c(CC(=O)N2CCN(c3ccccc3)CC2)c(=O)[nH]1`, for which the “% Inhibition” value is reported as -33% and the Z score stood at 3.87.

`Cc1ccc(CS(=O)(=O)N2CCC[C@H]2c2ncc(C)n2Cc2cccnc2)cc1`: the “% Inhibition” value was determined as 0% and the Z score worked out at 0.

With `Cc1cccc(-c2cc(-c3cccc(C)c3)n(-c3nc(-c4ccccc4)cs3)n2)c1`, the “% Inhibition” value is given as 7% and the Z score is -1.07.

Take `Cc1ccc(-c2nn(CC(=O)NC3CCCCC3)c3c2cnc2ccccc23)cc1`: the “% Inhibition” value is given as -7% and the Z score is recorded as 1.18.

Take `Cc1c(NCC(=O)NC(=O)NCC(C)C)cccc1C(N)=O`: the “% Inhibition” value is reported as -8% and the Z score came out at 1.03.

On to `CCn1cc(S(=O)(=O)N2CCC(CCc3nc(C4CCOCC4)no3)CC2)cn1`, for which the “% Inhibition” value is -15% and the Z score turned out to be 2.09.

With `COc1ccc(N(C(=O)C2CCCCC2)c2nc(-c3ccc(C)cc3)c(C)s2)c(OC)c1`, the “% Inhibition” value is reported as -13% and the Z score was determined as 1.67.

As to `Cc1ccn2c(C(=O)NCc3csc(C)n3)nnc2n1`, the “% Inhibition” value is on record as -17% and the Z score came to 2.72.

On to `CCc1ccc(NC(=O)Cn2nc3c(Oc4ccc(C)cc4)nc4ccccc4n3c2=O)cc1`, for which the “% Inhibition” value is given as -10% and the Z score came out at 1.47.

As to `COc1cc(NC(=O)c2csc(-c3ccnc(N4CCOCC4)c3)n2)cc(OC)c1`, the “% Inhibition” value is -7% and the Z score is recorded as 0.88.

As to `CC(C)Cc1cc(NC(=O)[C@@H]2CC(F)(F)CN2)[nH]n1`, the “% Inhibition” value was -6% and the Z score stood at 0.8.

Turning to `Cc1cnc(CCNC(=O)NC(C)CC(O)c2ccccc2)s1` (centres undefined), the “% Inhibition” value is listed as -1% and the Z score is 0.12.

`N#CCCCC(=O)Nc1ccc(N2CCOCC2=O)c(NC(=O)CCCC#N)c1`: the “% Inhibition” value is recorded as 1% and the Z score is -0.24.

Turning to `CC(C)(C)c1nc(-c2cccnc2)cs1`, the “% Inhibition” value is reported as -5% and the Z score is 0.97.

Turning to `CCc1csc(-c2cn(CC(=O)Nc3ccccc3CC)cn2)n1`, the “% Inhibition” value is -5% and the Z score is listed as 0.58.

For the compound `Cc1c(-c2cc(C(=O)NCCc3noc(C(F)(F)F)n3)no2)cnn1C`, the “% Inhibition” value is given as -4% and the Z score is 0.53.

For the compound `Cc1ccc(CN(Cc2ccccc2)C(=O)CN(CC(C)C)C(=O)Nc2ccc(F)c(F)c2)o1`, the “% Inhibition” value is given as -4% and the Z score stood at 0.58.

For `O=C(c1nc2sccn2c1CN1CCc2sccc2C1)N1CCCC1`, the “% Inhibition” value was determined as 8% and the Z score is listed as -1.64.

In the case of `CO[C@H]1CCN(C2CCN(C(=O)CCc3ccc(C)c(C)c3)CC2)C1`, the “% Inhibition” value was -9% and the Z score was found to be 1.16.

Consider `Cn1cnc2ccc(NC(=O)c3cc(C4CC4)[nH]c3C3CC3)cc21`, for which the “% Inhibition” value is 8% and the Z score was -1.29.

As for `COc1cc(OC)cc(-c2cc(C(=O)N3CCCCC3)ccn2)c1`, the “% Inhibition” value is recorded as 5% and the Z score is -0.48.

On to `Cc1cc(C(N)=O)c(-c2c(C)n[nH]c2C)nc1C`, for which the “% Inhibition” value was -18% and the Z score worked out at 1.69.

Take `CCn1nccc1C(=O)N1CCC(Cc2ccc(C(=O)NC3CC3)cc2)CC1`: the “% Inhibition” value is -4% and the Z score is 0.52.

Take `C[C@H]1CCN(CCOc2ccc(NC(=O)c3cnccn3)cc2)C1`: the “% Inhibition” value came out at 1% and the Z score was -0.25.

Regarding `Cc1cc(C(F)(F)F)c(C(N)=O)c(N)n1`, the “% Inhibition” value is -3% and the Z score is given as 0.48.

For the compound `COc1ccncc1CNC(=O)c1c(C)nn(C)c1OC[C@H]1CCCCO1`, the “% Inhibition” value was -19% and the Z score was found to be 1.92.

As to `Cc1nccc(N2CCOc3ccccc3[C@@H]2C)n1`, the “% Inhibition” value is -10% and the Z score amounted to 1.47.

Turning to `c1cc(-c2nc([C@H]3CCOC3)nn2C2CCCCC2)co1`, the “% Inhibition” value was -4% and the Z score worked out at 0.4.

For the compound `CCNC(=O)C1CN(C(=O)c2nnn(Cc3ccc(F)cc3)c2C)C1`, the “% Inhibition” value is listed as -10% and the Z score was found to be 1.93.

For the compound `CN(C)c1nc(NCCc2nc(-c3cccnc3)n[nH]2)ncc1F`, the “% Inhibition” value is listed as 4% and the Z score is recorded as -0.79.

Take `CN1CC[C@H](NC2CCN(c3ccccc3Cl)CC2)C1`: the “% Inhibition” value was -1% and the Z score was found to be 0.19.

In the case of `CN(Cc1ccccc1)[C@H]1CCOC2(CCN(C(=O)c3ccco3)CC2)C1`, the “% Inhibition” value is reported as -13% and the Z score is 1.64.

Consider `COc1cccc(N2C(=O)[C@@H]3CCCN3[C@H]2c2ccc(N(C)C)cc2)c1`, for which the “% Inhibition” value worked out at 6% and the Z score is given as -0.81.

Consider `O=C(Cn1cnc2nc(N3CCOCC3)sc2c1=O)Nc1ccc(Cl)cc1`, for which the “% Inhibition” value was -13% and the Z score turned out to be 1.57.

Consider `Cc1ccccc1[C@@H](C)C(=O)NCC1(O)CCS(=O)(=O)CC1`, for which the “% Inhibition” value is listed as -4% and the Z score is 0.84.
